The list shows a part of the results. The full chains were built here from the parent and the listed change. Inactive controls read about 0.05.
B1: TEV protease; numbered along this chain (parent)
chain: MGESLFKGPRDYNPISSSICHLTNESDGHTTSLYGIGFGPFIITNKHLFRRNNGTLVVQSLHGVFKVKDTTTLQQHLVDGRDMIIIRMPKDFPPFPQKLKFREPQREERICLVTTNFQTKSMSSMVSDTSCTFPSGDGIFWKHWIQTKDGQCGSPLVSTRDGFIVGIHSASNFTNTNNYFTSVPKNFMELLTNQEAQQWVSGWRLNADSVLWGGHKVFMVKPEEPFQPVKEATQL

Variants of: B1
Assay: raw area under fraction-flipped curve 0-4 h after induction (AUC4h, not background-subtracted), DNA-recorder readout of cleavage of the substrate (dimensionless); higher = more cleavage of the substrate by the protease variant
Conditions: temperature: 34 °C; time window: 0-4 h after rhamnose induction
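Note: Bxb1 expression induced with 0.2% (w/v) L-rhamnose at OD600 near 0.5, cultures sampled hourly, flipped fraction per protease–substrate barcode pair counted by paired-end Illumina sequencing.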

Variant | area with substrate FNLYFQS | area with substrate HNLYFQS | area with substrate INLYFQS | area with substrate LNLYFQS | area with substrate PNLYFQS | area with substrate RNLYFQS | area with substrate SNLYFQS | area with substrate TNLYFQS | area with substrate WNLYFQS | area with substrate YNLYFQS | area with substrate GNLYFQS | area with substrate MNLYFQS | area with substrate NNLYFQS | area with substrate QNLYFQS | area with substrate KNLYFQS | area with substrate VNLYFQS
V220H | 0.0595 | 0.0725 | 0.0777 | 0.0626 | 0.0828 | 0.065 | 0.0872 | 0.0705 | 0.065 | 0.0638 |  |  |  |  |  | 
P225Y | 0.074 | 0.0633 | 0.0749 | 0.0628 | 0.0722 |  | 0.06 | 0.0467 | 0.0707 | 0.0483 | 0.0847 | 0.0947 | 0.0602 | 0.0763 |  | 
F226L | 0.0668 | 0.0709 |  |  |  |  |  | 0.0591 | 0.062 | 0.0624 | 0.0554 | 0.0703 | 0.0712 | 0.0411 | 0.0663 | 0.0562
V229N | 0.0559 | 0.0592 | 0.0709 | 0.0637 | 0.0614 |  |  | 0.0486 | 0.0562 |  | 0.0614 |  |  |  | 0.071 | 
A232I | 0.0768 |  |  | 0.0644 |  |  |  | 0.0736 |  |  |  |  |  |  | 0.0831 | 0.0612
Q234P | 0.071 |  |  | 0.0729 | 0.0694 | 0.0618 |  | 0.0679 | 0.0636 | 0.036 |  | 0.0444 |  |  | 0.0539 | 
P9E |  | 0.0734 |  |  | 0.0706 |  |  | 0.0598 |  |  | 0.0734 | 0.0586 |  |  | 0.0658 | 
F41Y |  | 0.0653 |  | 0.0585 | 0.0729 |  | 0.0697 | 0.0641 | 0.0671 | 0.0885 | 0.0591 | 0.117 | 0.0578 |  | 0.0475 | 0.0726
K46G |  | 0.049 | 0.0581 | 0.0552 | 0.0593 |  |  | 0.0662 | 0.0588 | 0.0421 | 0.0641 | 0.0588 |  |  | 0.0653 | 0.0526
V58C |  | 0.0617 | 0.055 | 0.0672 | 0.0777 |  |  | 0.0575 | 0.0514 | 0.0639 | 0.0548 |  |  |  | 0.0669 | 
Q59C |  |  | 0.0677 | 0.0691 | 0.072 |  |  |  | 0.0479 |  | 0.0495 |  | 0.0645 |  |  | 
D79R |  | 0.0617 |  |  | 0.0666 | 0.0608 |  | 0.0807 |  | 0.0674 | 0.0571 | 0.0803 |  | 0.0736 | 0.0664 | 0.0757
R81Q |  | 0.0664 |  | 0.0645 | 0.0532 |  | 0.0662 |  |  |  | 0.0385 |  |  |  |  | 
D82S |  |  |  |  |  |  |  |  | 0.0578 |  | 0.06 | 0.0563 |  |  |  | 
I84Y |  | 0.0494 |  | 0.0516 | 0.055 |  |  |  | 0.068 |  | 0.131 |  |  |  | 0.0091 | 0.0465
I85E |  | 0.0429 |  |  |  | 0.0672 |  | 0.0492 | 0.0452 |  | 0.056 |  |  |  |  | 0.0433
I86H |  | 0.0411 | 0.0482 | 0.0356 | 0.0306 |  |  |  |  |  | 0.0413 | 0.0383 |  |  |  | 
D91G |  |  | 0.0725 | 0.0638 |  | 0.0682 |  | 0.0737 | 0.0653 | 0.0742 | 0.0662 | 0.0683 |  |  | 0.0769 | 
P93E |  | 0.0528 |  |  | 0.0989 |  | 0.0687 | 0.0672 | 0.0648 |  | 0.0717 | 0.0591 |  |  |  | 
P93G |  | 0.0684 | 0.0635 | 0.0779 | 0.067 |  |  | 0.0707 | 0.0568 | 0.0625 | 0.0659 |  | 0.0563 | 0.0928 | 0.063 | 0.0489

Variant | area with substrate FNLYFQS | area with substrate HNLYFQS | area with substrate INLYFQS | area with substrate LNLYFQS | area with substrate PNLYFQS | area with substrate RNLYFQS | area with substrate SNLYFQS | area with substrate TNLYFQS | area with substrate WNLYFQS | area with substrate YNLYFQS | area with substrate GNLYFQS | area with substrate MNLYFQS | area with substrate NNLYFQS | area with substrate QNLYFQS | area with substrate KNLYFQS | area with substrate VNLYFQS
R102F |  | 0.0336 | 0.0376 | 0.0609 | 0.0619 |  | 0.0624 | 0.0547 | 0.0401 |  | 0.034 |  | 0.0352 |  |  | 
R109M |  | 0.0636 |  |  |  | 0.0624 |  |  |  |  | 0.0654 |  |  |  | 0.079 | 
T114G |  | 0.0597 |  | 0.0639 | 0.0388 |  | 0.074 | 0.0911 | 0.0596 | 0.0601 | 0.086 |  |  |  | 0.066 | 
Q118E |  | 0.058 | 0.056 | 0.0773 | 0.0885 |  | 0.044 | 0.0338 | 0.0628 | 0.0796 | 0.0664 |  |  |  |  | 
S127R |  | 0.0544 | 0.0847 | 0.0627 |  | 0.0587 | 0.0713 | 0.0594 | 0.0576 | 0.0667 | 0.0692 | 0.055 | 0.0677 |  | 0.0645 | 
S135M |  | 0.0446 |  |  |  |  |  | 0.0629 |  | 0.0621 | 0.0662 |  |  |  |  | 0.0518
G136I |  |  | 0.0536 | 0.0577 |  |  |  | 0.0552 | 0.0539 |  | 0.0718 |  |  |  | 0.0765 | 
Q146Y |  | 0.0447 | 0.0508 | 0.0615 | 0.0687 |  | 0.0629 | 0.0768 | 0.0618 | 0.0562 | 0.0787 | 0.0651 |  |  | 0.0726 | 
D149A |  | 0.0689 | 0.0238 | 0.0686 |  | 0.0566 |  | 0.0547 | 0.0425 | 0.0928 | 0.0714 |  |  | 0.0585 | 0.0553 | 
G150S |  | 0.061 | 0.067 | 0.0668 |  |  | 0.0573 | 0.0567 |  | 0.0663 | 0.0518 |  |  |  | 0.0629 | 
Q151K |  | 0.0561 |  |  | 0.0606 |  |  | 0.0598 | 0.0507 |  | 0.0652 | 0.0249 |  |  |  | 
G153H |  |  | 0.056 | 0.0559 | 0.0407 |  | 0.065 | 0.0479 | 0.0467 | 0.0469 | 0.0453 | 0.0543 | 0.0453 |  | 0.0478 | 
L156A |  | 0.0551 |  | 0.0552 | 0.0607 |  | 0.0626 | 0.0566 | 0.0712 | 0.0626 | 0.0409 | 0.0621 | 0.0788 | 0.0813 |  | 
T159H |  | 0.0703 | 0.0653 | 0.0738 | 0.0672 |  |  | 0.0669 | 0.0585 | 0.0633 | 0.0535 |  |  |  |  | 
I167P |  | 0.0511 |  | 0.0525 | 0.0443 |  | 0.0176 | 0.0504 | 0.0462 | 0.0539 | 0.0233 |  | 0.0365 |  |  | 
S171N |  | 0.0579 | 0.0668 | 0.0537 |  |  | 0.0587 | 0.0608 | 0.0564 |  | 0.06 | 0.0659 |  |  |  | 
N178L |  | 0.0771 | 0.0618 |  |  |  |  |  | 0.0837 | 0.0713 | 0.0521 |  |  |  |  | 
K185Y |  | 0.0673 |  | 0.0573 |  |  |  | 0.087 | 0.069 | 0.048 | 0.0723 |  |  |  |  | 
M188Q |  | 0.0663 | 0.0648 | 0.124 | 0.0745 |  | 0.0573 |  |  | 0.0599 | 0.0511 |  |  |  |  | 
L191H |  | 0.052 | 0.0628 | 0.0679 |  |  | 0.0359 | 0.0751 | 0.0389 | 0.0413 | 0.0713 |  |  |  |  | 

From the supplement of paper PMC12217912
